This is one part of the list.

This assay concerns T1, Caupolican (Caup) homeodomain DNA-binding domain.
T1 sequence: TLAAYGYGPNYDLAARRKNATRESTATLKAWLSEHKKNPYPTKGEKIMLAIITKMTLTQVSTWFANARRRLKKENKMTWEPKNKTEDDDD
The assay is described as follows: PBM E-score (8-mer, recovered from the published 9-mer minima) (E-score (dimensionless, -0.5 to 0.5)); Drosophila protein; higher = stronger relative binding preference, active = 0.31 or more. The essentials:
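An enrichment score, with higher meaning stronger, expresses relative binding preference for each short DNA word. The protein used was Caup's homeodomain DNA-binding domain (residues 214-303), produced by in vitro transcription and translation and tested at 100 nM on custom-designed protein binding microarrays. The 8-mer values were recovered from published 9-mer scores, each equal to the lower of its two constituent 8-mer scores.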
For the sequence CTCAATTC, the “PBM E-score” value is inactive: -0.0175.
Consider ACCATTGC, for which the “PBM E-score” value was inactive: -0.0218.
In the case of GCGAAACA, the “PBM E-score” value is inactive: 0.0685.
As for CGAGTTAC, the “PBM E-score” value is inactive: 0.0872.
Turning to GCCGGTCA, the “PBM E-score” value is inactive: -0.114.
Then GGTGTTAA, with inactive: 0.18; and AAGGCCAT, with inactive: -0.0223; and CTGCGCAC, with inactive: -0.154.
As for GGCCTGTA, the figure is inactive: -0.0586; as for CCTCTTGA, inactive: -0.0197; as for GTGGGGAA, inactive: -0.0668.
As for AGAACCAC, the figure is inactive: 0.0098; as for ACGATCGT, inactive: 0.0282.
On to GTGTGTAA, for which the “PBM E-score” value was inactive: 0.275.
As for TGCCAACA, the “PBM E-score” value is at least 0.0994.
Consider AAATAGAT, for which the “PBM E-score” value is at least 0.153.
Regarding AGTTAGTG, the “PBM E-score” value is inactive: 0.0873.
As for TATCGGGA, the figure is inactive: 0.0232.
CCGTTACA: the “PBM E-score” value was inactive: 0.216.
Consider CCTGCAGC, for which the “PBM E-score” value was inactive: -0.122.
Consider GCCGCATA, for which the “PBM E-score” value is inactive: -0.107.
As to TATCCATA, the “PBM E-score” value was inactive: 0.143.
Turning to ACTTTTGG, the “PBM E-score” value is inactive: -0.0333.
Regarding AAACCGTG, the “PBM E-score” value is inactive: 0.0536.
Regarding ATTGAAAG, the “PBM E-score” value was inactive: 0.05.
Then CCTGTTTC, with inactive: 0.17; and CCGAAATA, with inactive: 0.0631.
Regarding AGCAGTCA, the “PBM E-score” value was inactive: -0.0614.
In the case of AGGCCCAA, the “PBM E-score” value is inactive: -0.126.
As for TTATAGAA, the “PBM E-score” value was inactive: 0.109.
Take CGCCACAG: the “PBM E-score” value was inactive: -0.0648.
As for AGGTTGAA, the “PBM E-score” value is inactive: -0.00047.
As for CACGTCCC, the “PBM E-score” value is inactive: -0.0517.
On to AAGAGCTG, for which the “PBM E-score” value is inactive: -0.0086.
AAATACCG: the “PBM E-score” value is at least 0.0751.
On to ATGTCCTA, for which the “PBM E-score” value was inactive: 0.267.
ACATCCCT: the “PBM E-score” value was inactive: 0.191.
With TGTAGGAA, the “PBM E-score” value was inactive: 0.115.
For the sequence AAACAAAC, the “PBM E-score” value is inactive: 0.201.
For the sequence CTCCCAAA, the “PBM E-score” value is inactive: -0.103.
With AAGATCTG, the “PBM E-score” value was inactive: 0.0553.
As to AAAATGGT, the “PBM E-score” value is inactive: 0.117.
As to CGCATCAA, the “PBM E-score” value was inactive: 0.0212.
Regarding ATATTTCA, the “PBM E-score” value was inactive: 0.151.
AACAAGGG: the “PBM E-score” value is inactive: 0.278.
Consider AGCACCTC, for which the “PBM E-score” value is inactive: -0.0781.
With CCTAAATA, the “PBM E-score” value was inactive: 0.0729.
With ACCCCAAA, the “PBM E-score” value was inactive: -0.117.
For the sequence GGGGCCCA, the “PBM E-score” value is inactive: -0.322.
Consider CAAATCAG, for which the “PBM E-score” value was inactive: 0.151.
As to TACGACGA, the “PBM E-score” value was inactive: 0.134.
Take GGCTCATA: the “PBM E-score” value was inactive: -0.0512.
With CTGATAGC, the “PBM E-score” value is inactive: -0.0812.
With CATTCCGA, the “PBM E-score” value was inactive: 0.0885.
ACTTAAGG: the “PBM E-score” value was inactive: -0.0168.
For ACGGCGCT, the “PBM E-score” value is inactive: -0.224.
As for ATAGGTGG, the figure is inactive: 0.0433; as for ACTCAACG, inactive: -0.0592; as for ATTGACCC, inactive: 0.0307.
For the sequence ACTAAACG, the “PBM E-score” value is inactive: 0.0821.
On to CTGACTAC, for which the “PBM E-score” value was inactive: 0.103.
For the sequence GTACGCCA, the “PBM E-score” value is inactive: -0.00274.
Take GAAGATGA: the “PBM E-score” value is inactive: -0.038.
For ACCGTACA, the “PBM E-score” value was inactive: 0.193.
Consider AACGACGA, for which the “PBM E-score” value was inactive: 0.0336.
As for GAGAGCTA, the “PBM E-score” value is inactive: -0.0608.
Consider ATTGGCCA, for which the “PBM E-score” value was inactive: -0.0658.
Then TGGTGCAA, with inactive: 0.0119; and GTCCCTTA, with inactive: -0.00469; and CCCATGAG, with inactive: -0.138.
Turning to ATGAATGA, the “PBM E-score” value is inactive: 0.158.
GGAAAGCC: the “PBM E-score” value is inactive: -0.0924.
CGGTCTTC: the “PBM E-score” value is inactive: -0.0755.
With TCCGGCGA, the “PBM E-score” value is inactive: -0.0988.
For GACCTCCA, the “PBM E-score” value was inactive: -0.182.
AACGCGGC: the “PBM E-score” value is inactive: -0.13.
For CCGGACAA, the “PBM E-score” value was inactive: 0.144.
As for GGAGTATA, the “PBM E-score” value is inactive: 0.0004.
In the case of GAAGTGGA, the “PBM E-score” value was inactive: -0.0889.
Turning to AAACCAGC, the “PBM E-score” value was inactive: -0.0267.
As to GGGAGGAA, the “PBM E-score” value was inactive: -0.185.
On to TAGCGGCA, for which the “PBM E-score” value was inactive: -0.0809.
With AGCTTACA, the “PBM E-score” value was inactive: 0.222.
Regarding CTCGTAGA, the “PBM E-score” value was inactive: -0.036.
As for CGATTCCG, the “PBM E-score” value is inactive: -0.127.
Then CTGGGTGC, with inactive: -0.161.
For the sequence ACATCATC, the “PBM E-score” value was inactive: 0.251.
As to GGCCAATA, the “PBM E-score” value is inactive: -0.00113.
As for AAACTATC, the “PBM E-score” value is inactive: 0.0932.
Take ACTGTGAT: the “PBM E-score” value is inactive: 0.066.
In the case of CTCTATAA, the “PBM E-score” value was inactive: 0.0928.
As to TACTGACA, the “PBM E-score” value is inactive: 0.25.
As to CATATAGG, the “PBM E-score” value is inactive: 0.0865.
On to ATAAGCAC, for which the “PBM E-score” value is inactive: 0.116.
Take ACCGGCGA: the “PBM E-score” value is inactive: -0.156.
Consider ATCCTTAA, for which the “PBM E-score” value is inactive: 0.0253.
Turning to GGAGTCTA, the “PBM E-score” value is inactive: -0.0976.
With TCTCCTCA, the “PBM E-score” value was inactive: -0.075.
As for AAGTAAGC, the “PBM E-score” value was inactive: 0.0364.
Then CCGAGGTC, with inactive: -0.225.
Then TACGAGTA, with inactive: 0.189.
Regarding ATATCTCA, the “PBM E-score” value was inactive: 0.0962.
In the case of GAGGCTGA, the “PBM E-score” value was inactive: -0.0439.
Then GGCGAGTA, with inactive: -0.0986.
As to GTGACTAA, the “PBM E-score” value was inactive: 0.0922.
GAGTCCGA: the “PBM E-score” value is inactive: -0.00451.
In the case of GCCTAAGA, the “PBM E-score” value is inactive: -0.103.
On to ACCCACGA, for which the “PBM E-score” value was inactive: -0.0778.
ATTATTTG: the “PBM E-score” value is inactive: 0.206.
Turning to ACCTTTCG, the “PBM E-score” value is inactive: -0.137.
Then CTCCAGCC, with inactive: -0.334; and CTCGTCCC, with inactive: -0.0824; and CGATTGGC, with inactive: -0.112.
For ATCACCCG, the “PBM E-score” value is inactive: -0.0714.
GATATAAC: the “PBM E-score” value was inactive: 0.176.
Then GTGGGGGA, with at least -0.217; and CTTCCCAA, with inactive: -0.0612; and GTTCTGGA, with inactive: 0.135.
Take AATGTTTC: the “PBM E-score” value was inactive: 0.143.
Consider ACAGGTAA, for which the “PBM E-score” value is inactive: 0.216.
With AATGGATG, the “PBM E-score” value was inactive: 0.099.
On to AGACTTAC, for which the “PBM E-score” value was inactive: 0.135.
Then ACCACCCA, with inactive: -0.0744; and ATGCTCCG, with inactive: -0.146; and AATTTGGT, with inactive: 0.0883.
As for AAGAGTGC, the “PBM E-score” value is inactive: 0.0487.
Turning to ACAAGTAT, the “PBM E-score” value is active: 0.314.
Regarding AATCGCCA, the “PBM E-score” value is inactive: -0.0899.
As for AGTGGTAT, the “PBM E-score” value was inactive: 0.117.
As for TCCCGAAA, the figure is inactive: -0.0737.
TCAAGGAA: the “PBM E-score” value is inactive: 0.00378.
As for ACTTGACA, the figure is inactive: 0.169.
Take CTCTTTAC: the “PBM E-score” value is inactive: 0.0068.
Turning to GACGCGGC, the “PBM E-score” value is inactive: -0.0783.
For CAAGCGGC, the “PBM E-score” value was inactive: -0.0809.
In the case of ACTACGGC, the “PBM E-score” value was inactive: -0.0896.
Regarding CGACGTTA, the “PBM E-score” value was inactive: 0.0111.
Then AAGCCCCT, with inactive: -0.163; and ATATTGAC, with inactive: 0.121.
GTAATACA: the “PBM E-score” value was inactive: 0.276.
On to ACCATTAG, for which the “PBM E-score” value is inactive: 0.0637.
Take TCACTTAA: the “PBM E-score” value was inactive: 0.123.

Values taken from the supplement of paper PMC3724861.
